According to paper PMC4336329 (PLoS ONE, 2015):
About 2,200 (0.71%) of roughly 310,000 compounds showed an effect of 50% or more. Effects have a minus sign here. The list shows a part of the results.

Biological target: human ether-à-go-go-related gene (hERG) potassium channel (human, UniProt Q12809)
Test: primary screen, population patch clamp on CHO cells stably expressing hERG

Chain of human ether-à-go-go-related gene (hERG) potassium channel (Q12809 whole entry, looked up): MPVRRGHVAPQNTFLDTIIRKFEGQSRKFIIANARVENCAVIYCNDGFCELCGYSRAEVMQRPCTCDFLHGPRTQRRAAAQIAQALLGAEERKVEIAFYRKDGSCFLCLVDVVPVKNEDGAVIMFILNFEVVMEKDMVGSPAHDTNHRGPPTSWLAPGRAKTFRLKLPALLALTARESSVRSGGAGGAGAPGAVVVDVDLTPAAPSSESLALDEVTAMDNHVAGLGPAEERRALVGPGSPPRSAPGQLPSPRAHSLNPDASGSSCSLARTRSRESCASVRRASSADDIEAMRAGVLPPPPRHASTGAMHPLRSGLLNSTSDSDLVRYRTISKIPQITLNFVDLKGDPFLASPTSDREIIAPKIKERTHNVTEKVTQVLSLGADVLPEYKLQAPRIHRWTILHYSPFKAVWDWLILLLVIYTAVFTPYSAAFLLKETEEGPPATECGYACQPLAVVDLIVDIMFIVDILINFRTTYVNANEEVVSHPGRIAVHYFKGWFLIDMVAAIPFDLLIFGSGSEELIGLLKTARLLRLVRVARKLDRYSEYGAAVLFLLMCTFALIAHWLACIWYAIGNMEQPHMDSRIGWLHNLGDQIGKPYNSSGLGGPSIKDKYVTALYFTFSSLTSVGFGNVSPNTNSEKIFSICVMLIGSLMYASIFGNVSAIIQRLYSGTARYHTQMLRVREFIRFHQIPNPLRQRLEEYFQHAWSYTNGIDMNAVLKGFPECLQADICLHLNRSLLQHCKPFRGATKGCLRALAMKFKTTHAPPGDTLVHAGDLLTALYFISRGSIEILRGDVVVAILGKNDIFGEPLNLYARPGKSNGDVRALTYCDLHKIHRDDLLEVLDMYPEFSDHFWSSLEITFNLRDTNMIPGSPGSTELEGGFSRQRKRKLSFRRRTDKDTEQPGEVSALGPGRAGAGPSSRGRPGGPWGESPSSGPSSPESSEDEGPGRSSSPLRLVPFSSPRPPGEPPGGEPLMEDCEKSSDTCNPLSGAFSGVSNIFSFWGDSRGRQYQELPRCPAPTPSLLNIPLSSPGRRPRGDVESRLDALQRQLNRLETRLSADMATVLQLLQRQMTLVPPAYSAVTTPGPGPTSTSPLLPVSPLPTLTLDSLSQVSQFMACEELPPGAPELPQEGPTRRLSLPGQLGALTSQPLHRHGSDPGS

Structure (SMILES) | hERG current change (%, negative = inhibition) at 1uM [%]
COc1cc(NCCCCCCCN)c2ncccc2c1.O=C(O)CCC(=O)O | 10.5
Cc1ccc(S(=O)(=O)c2nc(-c3ccccc3)oc2N2CCCC2)cc1 | 14.1
Cc1nc(-c2ccc(Cl)cc2)sc1C(=O)NNC(=O)C(C)C | 13.2
CCNC(=O)c1c(O)c2ccccc2[nH]c1=O | 5.46
CC1CC(C)CN(Cc2nc(N)nc(Nc3ccc4ccccc4c3)n2)C1 (stereo not drawn) | -61.1
COC(=O)c1ccc(=O)n(CC(=O)c2ccc(Cl)cc2)c1 | 6.36
CCC1CC(CSc2ncn[nH]2)OC1=O (stereo not drawn) | 8.58
Clc1ccc(-c2cn3nc4c(nc3n2)CCCC4)cc1 | 8.51
CC12CCC(C(=O)Nc3nc4ccc(Br)cc4s3)(OC1=O)C2(C)C (stereo not drawn) | 3.11
CC1(O)CC(=O)N(c2ccccc2)O1 (stereo not drawn) | -1.32
CCOc1cc(CNc2ccc(N3CCN(C(C)=O)CC3)cc2)cc(Br)c1OC | -0.298
CCC/C(O)=C1\C(=O)CCCC1=NCCc1c(C)[nH]c2ccc(OC)cc12 | 13.4
CC/C(O)=C1\C(=O)CC(c2ccccc2)CC1=NCCc1c(C)[nH]c2ccc(C)cc12 (stereo not drawn) | 4.75
COc1ccc(C2C(C(=O)c3cccs3)=C(O)C(=O)N2c2cccc(C)n2)cc1 (stereo not drawn) | 9.01
COc1cc(C(=O)NCC2CCCO2)ccc1OCc1ccccc1Cl (stereo not drawn) | -5.43
O=C1CC(N2CCN(c3ccc(F)cc3)CC2)C(=O)N1c1ccc2c(c1)OCO2 (stereo not drawn) | 7.88
CC(=O)Nc1ccc(S(=O)(=O)Nc2ccc(Nc3ccccc3)cc2)cc1 | 16.4
COC(=O)[C@@H]1C[C@@]2(O)[C@@H](O)[C@@H](O)[C@@H](O)C[C@H]2N1CC1CCCCC1 | 13.5
O=C(Nc1cc([N+](=O)[O-])ccc1F)c1cccs1 | 11.3

Structure (SMILES) | hERG current change (%, negative = inhibition) at 1uM [%]
Cn1c(SCc2ccc(Br)cc2)nc2ccccc2c1=O | 13.4
CCOc1ccccc1NS(=O)(=O)c1cn(C)nc1C | 12.2
COc1c2c(cc3c1C(CC(O)Cc1ccccc1)N(C)CC3)OCO2 (stereo not drawn) | -14
CCOC(=O)Cc1csc(NC(=O)/C=C/c2cccc(Br)c2)n1 | 4.88
CCCOc1ccc(C(CC(=O)O)NC(=O)c2sc3ccccc3c2Cl)cc1 (stereo not drawn) | 1.55
O=C(OCC(=O)N1CCCC1)c1cc(Cl)ccc1[N+](=O)[O-] | 13.5
CN(C)c1ccc(/C=C(\Cl)c2nc3ccccc3s2)cc1 | 2.31
COc1ccc(/C=C/C(=O)OCc2cc(=O)n3c(n2)sc2ccccc23)cc1 | 15.8
CN(Cc1ccccc1)C(=O)c1cc(S(=O)(=O)N2CCOCC2)cn1C | -4.84
CCN(CC)S(=O)(=O)c1ccc2nc(CSc3nnnn3-c3ccc(O)cc3)[nH]c2c1 | 2.59
CC(=O)N(C)N(C)c1cc(C)nc(N)n1 | 11
COc1ccc(NC(=O)CN2CCN(S(=O)(=O)c3ccc(Cl)cc3)CC2)cc1Cl | 5.61
CC(=O)Nc1ccc(S(=O)(=O)N2CCC(n3cnc4cc(F)ccc43)CC2)cc1 | -26.4
CCNc1oc(-c2ccccc2F)nc1S(=O)(=O)c1ccccc1 | 10.7
COc1ccc(-c2c(-c3ccccc3OC)sc3ccccc23)cc1C=O | 11.6
Nc1c(Cl)ncnc1NCC(O)CO (stereo not drawn) | 16.2
CC(C)CC(NC(N)=O)C(=O)NCc1ccccc1Cl (stereo not drawn) | 14.8
C=CCN(CC=C)CCCOc1ccc(C)cc1OC.O=C(O)C(=O)O | -8.58
CC(C)n1ncc2c(C(=O)Nc3ccc(S(C)(=O)=O)cc3)cc(C3CC3)nc21 | 33.4

Structure (SMILES) | hERG current change (%, negative = inhibition) at 1uM [%]
CC(CCc1ccccc1)NC(=O)CN1CCN(c2ccc(O)cc2)CC1 (stereo not drawn) | -5.18
CC(=O)Cn1ncc(N(C)Cc2ccccc2)c(Cl)c1=O | 11.6
O=[N+]([O-])c1cc([N+](=O)[O-])c(Oc2cc(Cl)ccc2Cl)cc1NC1CCCCCCC1 | 18.6
Cc1cc(Cl)ccc1OCc1nnc2n1CCCCC2 | 1.87
Cc1ccccc1CCN(CC(=O)NC1CCCCC1)C(=O)c1csnn1 | 14.8
CC(C)(C)c1ccc(NC(=O)CSc2nnc(-c3n[nH]c4ccccc34)o2)cc1 | -3.31
O=C(Nc1cccc(F)c1)c1ccc(Cn2cc([N+](=O)[O-])cn2)o1 | 8.89
O=C(CSc1nccc(=O)[nH]1)Nc1ccccc1Sc1ccccc1 | 10.8
CC(=O)c1cccc(N(CC(=O)NCCc2ccccc2)C(=O)c2csnn2)c1 | 5.69
CCn1cc(C(=O)N2CCN(Cc3ccc4c(c3)OCO4)CC2)c2cc(OC)c(OC)cc2c1=O | 4.88
O=S(=O)(Cc1ccccc1)C1CCCCC1O (stereo not drawn) | 9.86
CC1(C)NC(=O)N(CCCCOc2ccc(Cl)cc2)C1=O | -10.3
Cc1ccccc1OCc1nnc2c3cnn(C)c3ncn12 | 5.31
Cc1[nH]c2ccccc2c1/C=N/Nc1nc2ccccc2[nH]1 | 11.1
O=C(CN1CCN(S(=O)(=O)c2ccc(Cl)s2)CC1)NCc1ccc(Cl)cc1 | 15.8
COc1cc(NC(=O)CS(=O)(=O)c2ccccc2)cc(OC)c1OC | 15.9
Cc1cccc(C)c1N=C1NN=C(c2ccccc2F)CS1 | 1.08
COc1ccccc1NC(=O)c1ccc2c(c1)N(CC(=O)NC(C)(C)C)C(=O)C(C)(C)O2 | 10.1
Cc1c(Cl)cccc1N=C1SCCN1C(=O)CN1C(=O)NC2(CCCC2)C1=O | 10.7
